Experimental data: PubChem BioAssay AID761 (NMMLSC, 2007)
The campaign covered roughly 190,000 compounds. About 400 (0.21%) were called active. Inconclusive means that the source gave no clear call. Such entries were picked first, then a sample of the others.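 How the source made its calls: active means percent activity GTP binding at least 20 points away from the 100% baseline, either down as inhibitor or up as activator; inconclusive means compound flagged as likely green fluorescent from well-wide comparison; inactive means the rest.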

Biological target: Cell division control protein 42 homolog (Homo sapiens) (UniProt P60953)
Test: wildtype Cdc42 fluorescent GTP binding changes, either direction – biochemical, multiplex bead flow cytometry, Bodipy-GTP, primary screen (AID 761);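 further: median bead fluorescence of bound Bodipy-FL-GTP at 100 nM; 0% = excess unlabeled GTP control and 100% = no compound control; below 100% means less GTP binding so inhibitor and above means activator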
Conditions: GST-Cdc42 beads, at 10 µM, actives lie on both sides

Chain of UniProt P60953 (P60953 whole entry, looked up): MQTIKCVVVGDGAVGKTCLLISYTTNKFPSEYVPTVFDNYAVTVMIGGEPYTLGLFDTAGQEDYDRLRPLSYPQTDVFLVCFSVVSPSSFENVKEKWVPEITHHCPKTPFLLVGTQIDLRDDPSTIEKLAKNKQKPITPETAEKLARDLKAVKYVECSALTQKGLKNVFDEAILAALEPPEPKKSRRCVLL

SMILES | percent activity (GTP binding)
ClC1(Cl)CC1CSc1nc2ccccc2[nH]1 (stereo not given) | inconclusive: 94%
O=C(NCCC(c1ccccc1)c1ccccc1)c1cnccn1 | inconclusive: 103%
Cc1ccc2cc(COC(=O)C3CCCO3)c(=O)[nH]c2c1 (stereo not given) | inactive: 104%
CC(C)N(C(=O)CSc1nnc(CSc2ncccn2)n1C)C(C)C | inconclusive: 105%
O=c1cc(-c2ccc(O)c(-c3c(O)cc(O)c4c(=O)cc(-c5ccc(O)cc5)oc34)c2)oc2cc(O)cc(O)c12 | inconclusive: 93%
CCOC(=O)c1ccc2c(c1)[n+](CC)c(C)n2-c1ccccc1 | inconclusive: 96%
O=C(COc1ccccc1)Nc1ccc(N2CCN(C(=O)c3cccs3)CC2)cc1 | inconclusive: 94%
CCC(C)(C)n1nnnc1CN1CCc2ccccc21 | inconclusive: 92%
S=C(NNc1ccc2ccccc2c1)NC1CCCCC1 | inactive: 101%
CCCCN(C)CCOc1ccccc1OCC | inconclusive: 106%
CC(C)c1ccc(O)c(NC(=S)NC(=O)CCc2ccccc2)c1 | inactive: 96%
COc1cccc(NC(=O)c2ccc(NC(=O)C3CC(=O)OC34CCCCC4)cc2)c1 (stereo not given) | inactive: 84%
CC(OC(=O)CCC(=O)c1cccs1)C(=O)Nc1ccccc1[N+](=O)[O-] (stereo not given) | inconclusive: 92%
CCCCn1c(SCC(=O)Nc2cc(C(F)(F)F)cc(C(F)(F)F)c2)nnc1C(CC)N(C)C (stereo not given) | inactive: 101%
CC(C)N1C(=O)/C(=C\c2nc3ccccc3c(=O)[nH]2)c2ccccc21 | inconclusive: 98%
CC(C)Oc1cccc(C(=O)NC(=S)Nc2ccc3c4c(cccc24)CC3)c1 | inconclusive: 89%
Cn1c(=O)c2ncn(CC(=O)NCCOc3ccc(C(C)(C)C)cc3)c2n(C)c1=O | inconclusive: 105%
CC(=O)Nc1ccc(S(=O)(=O)N2CCCC2C(=O)Nc2ccc3c(c2)OCCO3)cc1 (stereo not given) | inactive: 101%
COc1ccc(C(C#N)C2(C)OCCO2)cc1OC (stereo not given) | inactive: 102%
COC(=O)C1=C(C)N(c2cc(C)cc(C)c2)/C(=C/c2ccco2)C1=O | inconclusive: 93%

SMILES | percent activity (GTP binding)
O=C1C2C3C=CC(C3)C2C(=O)N1c1cccnc1 (stereo not given) | inconclusive: 90%
COc1ccccc1N(CCN1C(=O)c2cccc3cccc(c23)C1=O)C(=O)c1ccncc1 | inactive: 103%
COc1ccc(OC)c(S(=O)(=O)Nc2ccc(O)c(Sc3ncn[nH]3)c2)c1 | active: 36%
Cc1c(NC(=O)/C(C#N)=C/c2ccc(-c3cc(Cl)ccc3Cl)o2)c(=O)n(-c2ccccc2)n1C | inconclusive: 91%
Nc1ncc(Br)cc1S(=O)(=O)NCCC(=O)Nc1cccc(Cl)c1 | inconclusive: 107%
CCOc1ccccc1-c1c2cc(O)c(=O)cc-2oc2cc(O)c(O)cc12 | inconclusive: 186%
O=C(O)C1C2C=CC(C2)C1C(=O)Nc1ccc(C(=O)N2CCCCC2)cc1 (stereo not given) | inconclusive: 106%
CCCn1c(N)c(C(=O)NS(=O)(=O)c2ccc(C)cc2)c(=O)n(C)c1=O | inconclusive: 89%
CC(=O)Nc1cccc(NC(=O)c2ccc([N+](=O)[O-])cc2Cl)c1 | inconclusive: 104%
COc1cc(/C=C(\C#N)C(=O)NC2CCCCC2)ccc1OCc1ccc(C(=O)O)cc1 | inactive: 85%
CCN1CCN(C(=O)c2c(-c3c(F)cccc3Cl)noc2C)CC1 | inconclusive: 106%
Cc1ccccc1-n1c(SCc2c(C)noc2C)nnc1-c1cccnc1 | inactive: 118%
C/C(Cl)=C\COc1cc(C)nc2c(Br)cccc12 | inactive: 94%
COc1c(Cl)cc(Cl)cc1CNCCO | inactive: 96%
CC1CCCC(NC(=O)COC(=O)Cc2ccsc2)C1C (stereo not given) | inconclusive: 102%
Cc1nn(C)cc1CN1CCCC(C(=O)c2ccc(-c3ccccc3)cc2)C1 (stereo not given) | inactive: 96%
CCC(CC)C(=O)NCCN1CCN(C(=O)C(CC)CC)CC1 | inconclusive: 111%
Cc1ccc(C(=O)OC(C)CN2CCOCC2)cc1 (stereo not given) | inactive: 99%
Cc1ccc(C(=O)CC(C(=O)O)P(=O)(c2ccccc2)c2ccccc2)cc1 (stereo not given) | inconclusive: 93%
Cc1ccc(NC(=O)CSc2nnc(-c3ccncc3)o2)cc1 | inconclusive: 105%

SMILES | percent activity (GTP binding)
Cc1cccc(C(=O)NC(=S)NNC(=O)c2ccc(Cl)cc2)c1 | inconclusive: 96%
O=C1Nc2cc(Cl)c(Cl)cc2N(O)N1c1ccccc1 | inconclusive: 95%
CCOC(=O)C1(Cc2ccccc2C(F)(F)F)CCN(CC(O)CO)CC1 (stereo not given) | inactive: 100%
O=C(O)C1C2C=CC(O2)C1C(=O)Nc1ccccc1C(F)(F)F (stereo not given) | inconclusive: 104%
CC(C)OC(=O)CSc1n[nH]c(-c2cccnc2)n1 | inconclusive: 106%
S=C(NCc1cccs1)Nc1ccc(Cl)cc1 | inconclusive: 94%
CCOC(=O)N1CCN(C(=O)CC(=O)Nc2ccc3nc4n(c(=O)c3c2)CCCCC4)CC1 | inactive: 95%
Cc1cccc(OCC(O)CN2C(C)(C)CC(O)CC2(C)C)c1 (stereo not given) | inconclusive: 107%
O=C1CNC(=O)/C1=C/c1ccc(O)cc1 | inconclusive: 104%
CC(=O)Cc1nsc(NC(=O)c2ccco2)n1 | inconclusive: 106%
COc1cccc(C(=O)Nc2cccc(C(=O)NC3=NN(c4c(Cl)cc(Cl)cc4Cl)C(=O)C3)c2)c1 | inconclusive: 88%
COc1ccc(S(=O)(=O)CCC(=O)NCCc2ccc(C)cc2)cc1 | inconclusive: 105%
COc1ccc(Nc2nc(N)nc(CSC(=S)N3CCOCC3)n2)cc1 | inconclusive: 92%
O=C(Cc1ccc(F)cc1)N/N=C/c1ccc2c(c1)OCO2 | inactive: 97%
N#Cc1cc([N+](=O)[O-])ccc1NC(=O)COC(=O)CCC1CCCCC1 | inactive: 82%
CN(C)c1nc(=S)nc(NCc2ccccc2)[nH]1 | inconclusive: 107%
Cc1ccc2nc3ccc(N4CCCC4)nn3c(=O)c2c1 | inactive: 107%
COC(=O)/C=C/C(=O)Nc1cccnc1 | inactive: 101%
Cc1cccc(-n2c(C)cc(/C=N\NC(=O)c3cccs3)c2C)c1 | inconclusive: 96%
O=[N+]([O-])c1ccccc1/C=N/Nc1nnc(-c2ccccc2)c(-c2ccccc2)n1 | inactive: 101%
